In assay [1] the test system is A549-Dual. Kind of assay: NF-kB reporter (SEAP) activity, viability-corrected, relative to vehicle (fold change vs vehicle); higher = more activation of STING-IRF / NF-kB immune response reporter. Particulars: 10 µM.
The test system of assay [2] is A549-Dual. Kind of assay: ISRE reporter (Lucia luciferase) activity, viability-corrected, relative to vehicle (fold change vs vehicle); higher = more activation of STING-IRF / NF-kB immune response reporter. The following applies: 10 µM.

The other results are listed elsewhere or left out. Single values of this set are uncertain. Values with irradiation are relative to irradiated vehicle.
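For NF-kB reporter (SEAP) activity, viability-corrected, relative to vehicle in this document: viability correction based on the alamar blue assay, with concentrations leaving 10% survival or less dropped.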

In turn, `N=C(NCCCCCCNC(=N)NC(=N)Nc1ccc(Cl)cc1)NC(=N)Nc1ccc(Cl)cc1` [Chlorhexidine] displayed an NF-kB reporter in the assay on A549-Dual [1] (irradiation: 8 Gy/4 fr) of 1.77. This compound yielded an ISRE reporter with A549-Dual [2] (irradiation: 8 Gy/4 fr) of 0.359.
Consider `Nc1ccc2cc3ccc(N)cc3nc2c1.Nc1ccc2cc3ccc(N)cc3nc2c1.O=S(=O)(O)O` [Proflavine Hemisulfate], for which the NF-kB reporter with A549-Dual [1] (irradiation: none) was 4.42. In the assay on A549-Dual [2] (irradiation: none), this compound came in with an ISRE reporter of 5.59.
For `CCC(C)C1OC2(CCC1C)CC1CC(C/C=C(\C)C(OC3CC(OC)C(OC4CC(OC)C(O)C(C)O4)C(C)O3)C(C)/C=C/C=C3\COC4C(O)C(C)=CC(C(=O)O1)C34O)O2` (configuration not stated) [Ivermectin], the NF-kB reporter in the assay on A549-Dual [1] (irradiation: 8 Gy/4 fr) amounted to 1.14; in the assay on A549-Dual [1] (irradiation: none), 3.29. Also, the ISRE reporter in the assay on A549-Dual [2] (irradiation: 8 Gy/4 fr) was 1.62; in the assay with A549-Dual [2] (irradiation: none) it was 4.36.
Regarding `OC1(c2ccc(Cl)c(C(F)(F)F)c2)CCN(CCCC(c2ccc(F)cc2)c2ccc(F)cc2)CC1` [Penfluridol], the NF-kB reporter in the assay with A549-Dual [1] (irradiation: 8 Gy/4 fr) is 1. For the same compound, the ISRE reporter in the assay on A549-Dual [2] (irradiation: 8 Gy/4 fr) was determined as 0.861.
With `CCCCCNC(=N)N/N=C/c1c[nH]c2ccc(OC)cc12.O=C(O)/C=C\C(=O)O` [Tegaserod Maleate], the NF-kB reporter in the assay with A549-Dual [1] (irradiation: none) is 1.45. For the same compound, the ISRE reporter in the assay with A549-Dual [2] (irradiation: none) came out at 0.512.
Consider `NS(=O)(=O)c1cc2c(cc1Cl)NC(C1CC3C=CC1C3)NS2(=O)=O` (configuration not stated) [Cyclothiazide], for which the NF-kB reporter with A549-Dual [1] (irradiation: 8 Gy/4 fr) was 0.669; in the assay on A549-Dual [1] (irradiation: none), 1.21. The ISRE reporter in the assay with A549-Dual [2] (irradiation: 8 Gy/4 fr) amounted to 0.699; in the assay with A549-Dual [2] (irradiation: none) it was 0.846.
`C[C@H](O)[C@@H](O)[C@@H](O)[C@H](O)C=O` [L-Fucose] showed an NF-kB reporter in the assay on A549-Dual [1] (irradiation: 8 Gy/4 fr) of 1.9. For the same compound, the ISRE reporter with A549-Dual [2] (irradiation: 8 Gy/4 fr) stood at 1.75.
Regarding `Cc1ccc(/C(=C\CN2CCCC2)c2cccc(/C=C/C(=O)O)n2)cc1` [Acrivastine], the NF-kB reporter stood at 0.98 in the assay on A549-Dual [1] (irradiation: 8 Gy/4 fr) and 1.17 with A549-Dual [1] (irradiation: none). Also, the ISRE reporter in the assay on A549-Dual [2] (irradiation: 8 Gy/4 fr) turned out to be 0.99; with A549-Dual [2] (irradiation: none), 1.03.
The like results for `Nc1ccc(S(=O)(=O)Nc2ccccn2)cc1` [Sulfapyridine] were, in that order, 0.764, 0.824, 0.795 and 1.06.
In the assay on A549-Dual [1] (irradiation: none), `Cc1[nH]c2ccccc2c1CCNCc1ccc(/C=C/C(=O)NO)cc1` [Panobinostat (LBH589)] showed an NF-kB reporter of 5.8. The compound further showed an ISRE reporter in the assay on A549-Dual [2] (irradiation: none) of 2.73.
On the same counts, the results for `COC1CC(OC2/C(C)=C/CC3CC(CC4(CCC(C)C(C5CCCCC5)O4)O3)OC(=O)C3C=C(C)/C(=N\O)C4OC/C(=C\C=C\C2C)C34O)OC(C)C1O` (configuration not stated) [Selamectin] are 5.22 and 2.55.
For the compound `COc1cc(/C=C/C(=O)O)ccc1O` [Ferulic Acid], the NF-kB reporter in the assay with A549-Dual [1] (irradiation: 8 Gy/4 fr) is 0.74; in the assay on A549-Dual [1] (irradiation: none), 0.558. Moreover, the values for the ISRE reporter in the assay on A549-Dual [2] (irradiation: 8 Gy/4 fr) and with A549-Dual [2] (irradiation: none) were 0.768 and 0.526, respectively.
On the same counts, the results for `N=C(N)NCCCC(N)C(=O)O` (racemic) [DL-Arginine] are 2.41, 0.674, 1.41 and 0.641.
On the same counts, the results for `Cl.N=C(N)NC(=N)NCCc1ccccc1` [Phenformin HCl] are 0.503, 0.663, 0.302 and 0.49.
The like results for `CCC(C)(C)C(=O)OC1CC(C)C=C2C=CC(C)C(CCC3CC(O)CC(=O)O3)C21` (configuration not stated) [Simvastatin] were, in that order, 1.61, 2.25, 0.429 and 1.64.
As for `CN(C)CCCN1c2ccccc2CCc2ccccc21.Cl` [Imipramine HCl], the results for the NF-kB reporter in the assay on A549-Dual [1] (irradiation: 8 Gy/4 fr) and in the assay with A549-Dual [1] (irradiation: none) were 1.28 and 2.63, respectively. Also, the ISRE reporter turned out to be 0.0872 with A549-Dual [2] (irradiation: 8 Gy/4 fr) and 0.541 with A549-Dual [2] (irradiation: none).
Compound `CC1OC(OC2CCC3(C)C(CCC4(C)C3C=CC35OCC6(CCC(C)(C)CC63)C(O)CC45C)C2(C)CO)C(O)C(OC2OC(CO)C(O)C(O)C2O)C1O` (configuration not stated) [Saikosaponin D] gave an NF-kB reporter in the assay with A549-Dual [1] (irradiation: none) of 2.26. The ISRE reporter in the assay on A549-Dual [2] (irradiation: none) worked out at 0.456.
`CCCCc1oc2ccc(NS(C)(=O)=O)cc2c1C(=O)c1ccc(OCCCN(CCCC)CCCC)cc1.Cl` [Dronedarone HCl]: the NF-kB reporter in the assay with A549-Dual [1] (irradiation: 8 Gy/4 fr) turned out to be 1.25. For the same compound, the ISRE reporter in the assay on A549-Dual [2] (irradiation: 8 Gy/4 fr) turned out to be 0.607.
Turning to `CN1CCOC(c2ccccc2)c2ccccc2C1.Cl` (configuration not stated) [Nefopam HCl], the NF-kB reporter with A549-Dual [1] (irradiation: 8 Gy/4 fr) is 0.749; in the assay with A549-Dual [1] (irradiation: none), 2.02. The ISRE reporter with A549-Dual [2] (irradiation: 8 Gy/4 fr) was 0.64; in the assay on A549-Dual [2] (irradiation: none), 0.975.
In the case of `CC/C=C(\C(=O)NC1C(=O)N2C(C(=O)OCOC(=O)C(C)(C)C)=C(COC(N)=O)CSC12)c1csc(N)n1.Cl.O` (configuration not stated) [Cefcapene Pivoxil Hydrochloride], the NF-kB reporter in the assay with A549-Dual [1] (irradiation: 8 Gy/4 fr) was determined as 0.872; in the assay on A549-Dual [1] (irradiation: none), 1. The figures for the ISRE reporter in the assay on A549-Dual [2] (irradiation: 8 Gy/4 fr) and in the assay with A549-Dual [2] (irradiation: none) were 0.987 and 0.923, respectively.
On the same counts, the results for `C1CCN2CC3CC(CN4CCCCC34)C2C1` (configuration not stated) [Sparteine] are 0.878, 1.04, 0.691 and 0.51.
With `CN(Cc1cc(Br)cc(Br)c1N)C1CCCCC1` [Bromhexine], the NF-kB reporter with A549-Dual [1] (irradiation: 8 Gy/4 fr) was 0.545; in the assay with A549-Dual [1] (irradiation: none) it was 0.955. In addition, the figures for the ISRE reporter in the assay on A549-Dual [2] (irradiation: 8 Gy/4 fr) and in the assay with A549-Dual [2] (irradiation: none) were 0.657 and 0.8, respectively.
On the same counts, the results for `COC(=O)C1C(O)CCC2CN3CCc4c([nH]c5ccccc45)C3CC21.Cl` (configuration not stated) [Yohimbine HCl] are 0.82, 0.702, 0.665 and 0.456.
In the case of `O=c1[nH]cnc2c1ncn2C1OC(CO)C(O)C1O` (configuration not stated) [Inosine], the NF-kB reporter was found to be 0.773 in the assay on A549-Dual [1] (irradiation: 8 Gy/4 fr) and 1.06 with A549-Dual [1] (irradiation: none). Further, the ISRE reporter in the assay with A549-Dual [2] (irradiation: 8 Gy/4 fr) stood at 0.959; in the assay on A549-Dual [2] (irradiation: none) it was 0.89.
As for `COc1ccc(O)cc1` [Mequinol], the NF-kB reporter was found to be 1.03 in the assay with A549-Dual [1] (irradiation: 8 Gy/4 fr) and 0.929 in the assay on A549-Dual [1] (irradiation: none). The figures for the ISRE reporter in the assay on A549-Dual [2] (irradiation: 8 Gy/4 fr) and in the assay on A549-Dual [2] (irradiation: none) were 0.957 and 1, respectively.

The values above are taken from the supplement of paper PMC9174493.
